# Source: the supplement of paper PMC3334620
# Over roughly 33,000 sequences, “E-score (-0.5 to 0.5)” has its median near -0.053; the highest 2% begin near 0.37. Some of the results follow.
# Target: Hap1 (UniProt P0CE41)
# Assay: PBM E-score (8-mer binding enrichment) (E-score (-0.5 to 0.5)); higher = stronger / more preferred TF binding; most listed sequences are background and not binding sites
# Settings: protein concentration: 200 nM; construct: GST-DNA-binding domain
# Summary of the method: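 Full-length yeast transcription factors or their DNA-binding domains, GST-tagged and expressed with PURExpress, were applied at about 100-200 nM to universal all-10-mer Agilent arrays. These arrays had been made double-stranded by primer extension on fresh or once-stripped slides. Detection used fluorescent anti-GST, normalisation used masliner, and E-scores for ungapped eight-base words pooled with reverse complements came from the Universal PBM Analysis Suite.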
# Chain of UniProt P0CE41 (P0CE41 whole entry): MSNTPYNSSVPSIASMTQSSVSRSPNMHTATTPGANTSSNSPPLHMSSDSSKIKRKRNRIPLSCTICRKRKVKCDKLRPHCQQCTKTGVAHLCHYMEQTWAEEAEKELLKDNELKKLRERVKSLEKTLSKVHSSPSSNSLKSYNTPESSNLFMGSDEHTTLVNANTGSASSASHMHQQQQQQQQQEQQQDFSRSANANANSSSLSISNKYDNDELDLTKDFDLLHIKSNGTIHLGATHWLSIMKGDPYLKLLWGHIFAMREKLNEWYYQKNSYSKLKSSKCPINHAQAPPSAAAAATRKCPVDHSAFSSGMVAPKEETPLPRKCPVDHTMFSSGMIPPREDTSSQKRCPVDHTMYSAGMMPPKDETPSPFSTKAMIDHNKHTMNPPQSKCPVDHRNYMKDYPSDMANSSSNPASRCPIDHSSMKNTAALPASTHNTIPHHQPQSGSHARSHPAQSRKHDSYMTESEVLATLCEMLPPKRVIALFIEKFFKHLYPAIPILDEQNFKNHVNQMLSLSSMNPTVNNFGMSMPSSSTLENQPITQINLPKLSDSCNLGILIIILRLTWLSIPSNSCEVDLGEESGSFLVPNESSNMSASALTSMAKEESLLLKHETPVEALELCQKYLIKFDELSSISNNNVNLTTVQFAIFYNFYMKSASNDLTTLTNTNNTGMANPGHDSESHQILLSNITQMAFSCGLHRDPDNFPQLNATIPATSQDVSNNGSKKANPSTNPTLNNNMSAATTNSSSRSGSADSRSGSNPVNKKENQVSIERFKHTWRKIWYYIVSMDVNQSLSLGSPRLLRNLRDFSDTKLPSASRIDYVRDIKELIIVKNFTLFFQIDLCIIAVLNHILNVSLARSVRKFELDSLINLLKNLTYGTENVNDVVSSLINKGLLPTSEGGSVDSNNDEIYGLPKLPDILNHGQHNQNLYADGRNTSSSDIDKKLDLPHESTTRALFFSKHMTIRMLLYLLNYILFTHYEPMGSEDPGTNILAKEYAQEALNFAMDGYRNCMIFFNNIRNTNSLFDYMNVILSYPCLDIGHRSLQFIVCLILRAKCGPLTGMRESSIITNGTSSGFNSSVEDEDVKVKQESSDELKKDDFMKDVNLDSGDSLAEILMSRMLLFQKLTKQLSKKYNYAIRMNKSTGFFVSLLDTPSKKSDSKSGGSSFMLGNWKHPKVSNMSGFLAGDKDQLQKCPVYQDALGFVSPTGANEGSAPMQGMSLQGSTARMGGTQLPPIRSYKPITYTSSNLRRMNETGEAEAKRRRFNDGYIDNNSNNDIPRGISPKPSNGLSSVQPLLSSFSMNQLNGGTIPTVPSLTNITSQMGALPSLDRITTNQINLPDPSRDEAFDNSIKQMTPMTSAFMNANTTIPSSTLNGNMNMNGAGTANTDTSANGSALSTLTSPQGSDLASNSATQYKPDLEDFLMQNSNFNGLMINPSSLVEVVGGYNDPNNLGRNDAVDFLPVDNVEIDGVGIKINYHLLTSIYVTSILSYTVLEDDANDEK
row,Sequence,PBM E-score
1,AGACTTCG,-0.0746
2,ACGCCTAA,-0.0995
3,ACCCCCAA,-0.119
4,AAAGCGCG,0.073
5,CTAGACCC,0.0672
6,ATTTCCGA,0.432
7,TGTTTCAA,-0.162
8,GCAATATA,-0.0113
9,AAGTCTGC,-0.259
10,AAACAGCA,0.0297
11,AACAAAGA,-0.163
12,CTGGAGTA,-0.157
13,CTGTGCGA,-0.137
14,CAGGCTGG,-0.0521
15,CTAATCCC,0.279
16,AAGCACAC,-0.246
17,ATCCCGGC,0.339
18,CTATCGGA,0.452
19,CATCCCGG,0.312
20,ACCTGTAG,-0.131
21,GTGGCAGA,-0.188
22,ATGTGCCG,0.0929
23,ACAAGAAG,-0.0389
24,ATAAGAGG,0.117
25,GAACATGA,-0.0648

row,Sequence,PBM E-score
1,CCGCTTAC,-0.157
2,CGAAATTA,0.193
3,TTGCCAAA,-0.113
4,AACCCTGA,-0.00288
5,TACAAACA,-0.0533
6,CATGCCTA,-0.201
7,CCCTCGCC,-0.207
8,AACGCCAG,0.0301
9,ATCGATTG,-0.0851
10,GCAAGGGC,-0.166
11,CCGGCACC,0.341
12,CTTATGCC,0.112
13,CACGCGCG,0.0232
14,GCCTTGTA,-0.199
15,CTATCGCA,0.0719
16,ATGTGACA,-0.217
17,CCCAATCA,-0.0401
18,CGTAGGTA,0.00019
19,AAACTCAC,-0.0934
20,ACGACTGC,-0.215
21,GAGCCACA,-0.157
22,ATAGATTG,0.0362
23,CGCCAAAG,0.0304
24,CTGTGCTA,-0.111
25,TCGCGCGA,0.273

row,Sequence,PBM E-score
1,AGAACTAG,-0.23
2,ATTGATCC,0.305
3,TAACGTTA,0.0838
4,CGAATACC,0.135
5,AGATCCAA,-0.16
6,CAAGTGCG,-0.0281
7,CGCAGAAG,-0.098
8,ATACCGGA,0.437
9,AGGCCGGG,0.25
10,AGATCTCC,0.0876
11,GGGTCGAA,0.0247
12,CGAAACGC,0.0847
13,AGTAGCGG,0.216
14,GAATGCCA,-0.0688
15,GGCCTAAA,-0.022
16,ACCAGTGG,-0.135
17,ACAGACAG,-0.0727
18,GACGTCGA,-0.142
19,ACTGTCGA,-0.155
20,ATCCTTTC,-0.124
21,GGCGGGGA,0.284
22,CCGATCTA,0.249
23,ACAGTGGT,-0.156
24,GCAACGCC,0.0684
25,ATATTAAG,-0.0464

row,Sequence,PBM E-score
1,AAAACTTT,0.105
2,AACGGCCA,0.183
3,CACTGGTC,-0.0058
4,AAATGACC,0.0485
5,CGGTTACC,0.193
6,GCGTCAAA,-0.079
7,ACACGCGT,-0.0669
8,AGTTGCTC,-0.185
9,GCGTAGGA,0.0634
10,CTGAACAC,-0.08
11,AGCCATCC,0.0274
12,AGCTGGGA,-0.113
13,CACAGCCA,-0.18
14,AGGCCGTC,0.096
15,CGCCCAGC,0.108
16,GAGTACCC,-0.134
17,CACGACCA,-0.204
18,CTACCTGC,0.105
19,ATCCGAGA,0.346
20,AGGTATAG,-0.0745
21,AGGAGGAT,-0.214
22,CACCGGGC,0.365
23,GGGGGTGA,-0.0178
24,AACCCACT,0.194
25,AAGCCTAC,-0.268

row,Sequence,PBM E-score
1,CCCGCTTC,0.169
2,GTTAAAAA,0.0229
3,ATCAATTC,-0.00586
4,ACCAGCCT,-0.0444
5,GCTTGTCC,0.123
6,CCAGCGAG,-0.0775
7,CTTGGAAA,-0.221
8,GTTGCGCA,-0.0663
9,GTGTCCGA,0.339
10,AAGACCTT,-0.295
11,ATTCCGTC,0.213
12,TGTCCAAA,-0.133
13,GGCAGCCC,0.113
14,CCATGTCA,-0.288
15,GAAGGCAC,-0.0924
16,CCTTGGAC,-0.217
17,CTTAGTGC,-0.0311
18,GGGGACAC,-0.0417
19,AGCAAGCG,0.139
20,AGCCGGAG,0.404
21,AGGATCGA,-0.0345
22,ACAGGCAT,-0.264
23,CCTGAACC,-0.351
24,GTATACAC,-0.01
25,ATGGCGTC,-0.0274

row,Sequence,PBM E-score
1,AGCTTCCG,0.151
2,CCATGTCG,-0.0421
3,CGAATTAA,0.0158
4,AAACGTGC,-0.217
5,ACAAGCCC,-0.0592
6,CCGGACCA,0.372
7,ACTTGCGA,-0.0228
8,AAGTATAT,0.0963
9,ATCCGACC,0.307
10,ATCAGTAG,-0.276
11,ACTGCGCA,0.00346
12,AATTACTG,-0.12
13,ACCCCATC,0.0549
14,CATGGACC,-0.0726
15,ACAGTTGA,-0.16
16,AGGTAAAG,-0.0257
17,CCCATAAC,0.0228
18,AGTTTATA,0.128
19,CCCAGGGA,-0.304
20,CGAAATCC,0.284
21,TGGAGTAA,-0.148
22,CGCTAACA,-0.00407
23,TCTTGCAA,0.127
24,ATATTTTA,-0.0539
25,CGAGTATA,0.00078

row,Sequence,PBM E-score
1,ACATATGC,-0.301
2,GCCACCGA,0.0551
3,AGACCGAC,0.346
4,AGCACTGA,-0.102
5,ACGTTATC,0.17
6,AACAGCCT,-0.24
7,ATCCTGAC,-0.135
8,ATGGGTTA,-0.0828
9,GGCCCGAA,0.384
10,AGAGAGAT,-0.285
11,CCGCTTCA,0.0542
12,CAGACTTC,-0.289
13,GCAGACAA,-0.0966
14,AGCACGCC,0.0637
15,AGGAGGTA,-0.044
16,AGACCCAC,-0.094
17,ATTTTAGA,-0.109
18,GGTCCAAA,0.0135
19,ACTGCGGA,0.199
20,ACCGCGCT,0.15
21,AGGAACGA,-0.0316
22,CCGACTGC,0.274
